Source: PubChem BioAssay AID1030 (National Center for Advancing Translational Sciences (NCATS), 2008)
Among all 220,000 compounds or so, about 16,000 (7.3%) were called active. Inconclusive means that the source gave no clear call. Such entries were picked first, then a sample of the others. Calls come from the whole dose curve; as a rule, active = well fitted inhibition curve with a large enough effect (not every such curve was filed as active); inconclusive = small, poorly fitted or top-dose-only effect, or another doubt; inactive = no such curve, though single readings can be large or run the other way. Potencies of inconclusive entries are left out as doubtful fits.
Potency is the fitted concentration of half-maximal effect; tags give direction and shape of the fitted curve.

The molecules below were run against Aldehyde dehydrogenase 1A1 (Homo sapiens) (UniProt P00352) (assay: qHTS Assay for Inhibitors of Aldehyde Dehydrogenase 1 (ALDH1A1)). Conditions: Purified ALDH1A1, NADH fluorescence, propionaldehyde substrate; series mostly up to 75.3 µM.
Chain of UniProt P00352 (P00352 whole entry, looked up): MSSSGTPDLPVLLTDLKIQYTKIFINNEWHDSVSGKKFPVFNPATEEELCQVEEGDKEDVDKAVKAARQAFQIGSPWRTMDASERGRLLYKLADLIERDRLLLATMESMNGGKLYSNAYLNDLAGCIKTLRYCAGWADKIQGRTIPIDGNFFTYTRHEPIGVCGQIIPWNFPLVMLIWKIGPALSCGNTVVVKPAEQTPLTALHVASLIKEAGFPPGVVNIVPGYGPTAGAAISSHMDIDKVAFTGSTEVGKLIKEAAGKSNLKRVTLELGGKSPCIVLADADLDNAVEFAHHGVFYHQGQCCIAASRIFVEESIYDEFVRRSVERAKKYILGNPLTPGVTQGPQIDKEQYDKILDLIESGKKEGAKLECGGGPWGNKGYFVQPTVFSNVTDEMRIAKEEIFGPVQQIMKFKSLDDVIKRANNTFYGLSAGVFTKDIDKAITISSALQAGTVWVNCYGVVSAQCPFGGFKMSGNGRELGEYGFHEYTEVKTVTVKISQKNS
`C[C@@H]1C(=O)CC2C(C)(C)CCC[C@]2(C)[C@@]1(O)CCc1ccoc1` (some centres not stated) was tested, and the Potency was inconclusive [inhibitor, single point]. With `CC(=O)C1=C(C)NC(SCSc2ccccc2)=C(C#N)C1c1cccnc1` (configuration not stated) the Potency was inconclusive [inhibitor, partial curve]. `N=C(N)c1ccc(/C=C/c2ccc(C(=N)N)cc2O)cc1` was tested, and the Potency was “inactive”. For `O=C(O)c1ccccc1C(=O)NNc1ccc(Cl)cc1`, the Potency was inconclusive [inhibitor, single point]. `COc1ccc(-c2nc(CSCC(=O)NCCC3=CCCCC3)c(C)o2)cc1OC` was tested, and the Potency was “inactive”. For `Cn1c(-c2ccco2)nc2cc3ccccc3cc21`, the Potency was inconclusive [inhibitor, partial curve]. With `Cc1ccc(C(=O)CCNc2ccc(Br)cc2)o1` the Potency was active: 11.2 µM. In the case of `COc1ccc(C(C(=O)NC2CCCCC2)N(CC2CCCO2)C(=O)CNC(=O)c2ccco2)cc1` (configuration not stated), the Potency is reported as “inactive”. In the case of `O=C(NNC(=S)Nc1ccc(Br)cc1Cl)c1ccco1`, the Potency is reported as active: 12.6 µM. In the case of `O=C(/C=C/Nc1cccc(C(F)(F)F)c1)c1ccco1`, the Potency is reported as “inactive”. For `O=C(Nc1ccc(Cl)cc1C(=O)Nc1ccncc1)c1ccco1`, the Potency was inconclusive [inhibitor, partial curve]. In the case of `CC(C)Oc1cccc(C(=O)C2CCCN(S(C)(=O)=O)C2)c1` (configuration not stated), the Potency is reported as “inactive”. For `CCOC(=O)N1CCC(N(CCN(C)C)C(=S)Nc2cc(Cl)ccc2C)CC1`, the Potency was “inactive”. `CCOC(=O)c1c(NC(=O)CCl)sc(CN(C)C)c1-c1ccccc1` was tested, and the Potency was active: 7.08 µM. `CCOC(=O)c1c(-c2ccccc2)csc1NC(=O)C1CCCO1` (configuration not stated) was tested, and the Potency was inconclusive [inhibitor, single point]. With `O=C(CCN1CCN(c2ccc(F)cc2)CC1)Nc1ccc(F)cc1` the Potency was “inactive”. With `Cc1ccc(-c2nn(C)c(=O)c3ccccc23)cc1CNC(=O)CSc1nc2ccccc2o1` the Potency was “inactive”. With `COC(=O)c1sccc1NC(=O)CCC1CCCCC1` the Potency was inconclusive [inhibitor, single point]. With `CCc1ccc(C(=O)CCC2CCCCC2=O)cc1` (configuration not stated) the Potency was inconclusive [inhibitor, single point]. `Cc1ccc(CN2CCN(c3ccccn3)CC2)s1` was tested, and the Potency was “inactive”. With `CCn1c(SCC(=O)NCc2ccco2)nnc1C(C)C` the Potency was active: 3.98 µM. For `Cc1[nH][nH]c(=O)c1C(c1ccc(-c2ccccc2C(=O)O)o1)c1c(C)[nH][nH]c1=O`, the Potency was active: 5.01 µM. For `Cc1ccc2nc(N3CCN(C(=O)c4cccs4)CC3)c(C#N)cc2c1`, the Potency was inconclusive [inhibitor, partial curve]. In the case of `COc1ccc(OC)c(/C=N/NC(=O)CSc2cc(C)nc3c(OC)cccc23)c1`, the Potency is reported as inconclusive [inhibitor, partial curve]. With `O=C(NN1C(=O)c2cc(Br)ccc2NC1c1ccccc1Cl)c1ccncc1` (configuration not stated) the Potency was inconclusive [inhibitor, single point]. In the case of `C(=N\Nc1ccc2ccccc2n1)/c1ccc2c(c1)OCCO2`, the Potency is reported as inconclusive [inhibitor, partial curve]. With `CCc1ccc(NS(=O)(=O)c2ccc3[nH]cc(C(=O)N4CCc5ccccc54)c(=O)c3c2)cc1` the Potency was active: 14.1 µM. With `Cc1csc2ncc(C(=O)NCc3ccco3)c(=O)n12` the Potency was inconclusive [inhibitor, partial curve]. For `COc1cc(OC)c2c(c1)OC(=O)CC2c1ccc2c(c1)OCO2` (configuration not stated), the Potency was inconclusive [inhibitor, single point]. For `CCCN(CC(=O)Nc1ccc(C(N)=O)cc1)CC(=O)Nc1cc(Cl)ccc1Cl`, the Potency was “inactive”. With `CC(C)c1nccn1S(=O)(=O)c1cc([N+](=O)[O-])ccc1Cl` the Potency was “inactive”. With `COC(CNC(=O)c1cccc2c1C(=O)N(Cc1cccnc1)C2)OC` the Potency was inconclusive [inhibitor, single point]. `Cc1cccc(CN2CCN(c3nc4nonc4nc3NC3CC3)CC2=O)c1` was tested, and the Potency was inconclusive [inhibitor, single point]. For `COc1ccc(C(C)=O)cc1COC(=O)c1ccc(OCc2c(C)noc2C)cc1`, the Potency was active: 7.94 µM. `CC(C)CCNC(=O)COc1ccc2c(c1)C(=O)CC(C)(C)O2` was tested, and the Potency was inconclusive [inhibitor, partial curve]. In the case of `Cc1nnc(C)n1/N=C/C=C/c1ccccc1`, the Potency is reported as “inactive”. `COc1ccc(NC(=O)Nc2sc(=S)n(C)c2C)cc1` was tested, and the Potency was active: 15.8 µM. With `O=C(O)c1cc(-c2ccco2)[nH]n1` the Potency was “inactive”. In the case of `CNC(=O)C1CCN(C(=O)c2ccc(-c3ccccc3)cc2)CC1`, the Potency is reported as inconclusive [inhibitor, single point]. In the case of `N#Cc1cn(Cc2ccccc2)c2ccccc12`, the Potency is reported as inconclusive [inhibitor, partial curve]. With `COc1ccc2c(C)cc(SCC(=O)N3CCOCC3)nc2c1` the Potency was active: 22.4 µM. `COC(=O)CSc1nc(N2CCCCC2)c2c(c1C#N)CCCC2` was tested, and the Potency was inconclusive [inhibitor, partial curve]. In the case of `COc1ccccc1C(=O)NCC(=O)NNc1ncnc(N)c1[N+](=O)[O-]`, the Potency is reported as “inactive”. In the case of `CC(=O)c1c(N2CCN(C)CC2)nc(=S)n(Cc2ccccc2)c1C`, the Potency is reported as “inactive”. With `Cc1ccc(S(=O)(=O)/C(C#N)=C/c2c(N3CC(C)OC(C)C3)nc3c(C)cccn3c2=O)cc1` (configuration not stated) the Potency was inconclusive [inhibitor, single point]. For `Cc1ccccc1NC(=O)c1ccc(NS(=O)(=O)c2cc(C(C)(C)C)cc(C)c2C)cc1`, the Potency was active: 2.82 µM. With `CN(C)c1oc(-c2ccccc2Cl)nc1S(=O)(=O)c1ccccc1` the Potency was inconclusive [inhibitor, partial curve]. For `O=Cc1cn(-c2ccccc2)nc1-c1cc2c(ccc3ccccc32)oc1=O`, the Potency was inconclusive [inhibitor, full curve]. `Cc1ccc(OCc2ccc(C(=O)N3CCOCC3)cc2)cc1C` was tested, and the Potency was “inactive”. In the case of `COc1cc(/C=C/C(=O)O)cc2c1OCCO2`, the Potency is reported as inconclusive [inhibitor, single point]. `CC(=O)O[C@]1(C(C)=O)CC[C@H]2[C@@H]3C=C(Cl)C4=CC(=O)[C@@H]5C[C@@H]5[C@]4(C)[C@H]3CC[C@@]21C` was tested, and the Potency was “inactive”. In the case of `CC1=CC=CC2=NC(=O)CC(C)(C(=O)N(CC(=O)NC(C)C)C3CCCC3)N12` (configuration not stated), the Potency is reported as inconclusive [inhibitor, partial curve]. For `COc1ccc(CN(C)CC(=O)Nc2cc3oc4ccccc4c3cc2OC)c(OC)c1`, the Potency was inconclusive [inhibitor, partial curve]. `Cc1cc(C)c(C)c(S(=O)(=O)N2CCC(C(=O)OCC(=O)N3c4ccccc4NC(=O)C3(C)C)CC2)c1C` was tested, and the Potency was inconclusive [inhibitor, single point]. In the case of `COc1cc(OC)nc(NC(=O)COC(=O)c2cccc(Cl)c2)n1`, the Potency is reported as “inactive”. `COC(=O)c1c[nH]n2c(=O)cc(C)nc12` was tested, and the Potency was “inactive”. In the case of `COc1ccc(CC(=O)Nc2ncc([N+](=O)[O-])s2)cc1OC`, the Potency is reported as active: 20 µM. For `CCOC(=O)C(Sc1nn(C)c(=S)s1)C(C)=O` (configuration not stated), the Potency was inconclusive [inhibitor, single point]. `CCOc1ccc(N=CC2=C(O)CC(C)(C)CC2=O)cc1` was tested, and the Potency was active: 14.1 µM. In the case of `Cc1ccc(OC(=O)c2sc(Cl)nc2C)cc1C`, the Potency is reported as active: 20 µM. With `CC(C)Cn1c(Cc2ccccc2)n[nH]c1=S` the Potency was active: 15.8 µM. `CNC(=S)N/N=C/c1ccc(N2CCOCC2)s1` was tested, and the Potency was active: 8.91 µM. For `O=S(=O)(O)c1cc(O)c2c(N=Cc3ccccc3O)cc(S(=O)(=O)O)cc2c1`, the Potency was inconclusive [inhibitor, partial curve]. For `CCCn1c(SCC(=O)Nc2cccc(S(=O)(=O)N3CCCC3)c2)n[nH]c1=O`, the Potency was inconclusive [inhibitor, single point]. With `O=C(CSc1nnc(CNC(=O)c2ccccc2F)o1)c1ccc(Cl)cc1` the Potency was inconclusive [inhibitor, partial curve]. For `CSc1nnc2c(n1)c(C)nn2-c1cccc(C)c1`, the Potency was inconclusive [inhibitor, single point]. With `Cc1ccc(C(=O)CSc2ncnc3sc4c(c23)CCCC4)cc1` the Potency was inconclusive [inhibitor, single point]. In the case of `C=CCOc1ccc(CNC(C)(C)CO)cc1OCC`, the Potency is reported as inconclusive [inhibitor, single point]. With `O=C(c1cccc(Br)c1)N1CCN(C(=O)c2cccc(Br)c2)CC1` the Potency was active: 15.8 µM. In the case of `c1ccc(C2=Nc3ccccc3SC2c2nc3ccccc3[nH]2)cc1` (configuration not stated), the Potency is reported as inconclusive [inhibitor, partial curve]. For `O=C(c1ccco1)N1CCN(C(=O)C2c3ccccc3Oc3ccccc32)CC1`, the Potency was active: 8.91 µM. `COc1ccc(S(=O)(=O)/N=C2/NC(=O)/C(=C/c3ccco3)S2)cc1` was tested, and the Potency was active: 22.4 µM. For `COc1ccc(N2C(=O)CC(N3CCC(C(N)=O)CC3)C2=O)cc1` (configuration not stated), the Potency was active: 7.94 µM. In the case of `COc1ccc(CC(=O)OCC(=O)NC(=O)NC2CCCCC2)cc1`, the Potency is reported as inconclusive [inhibitor, partial curve]. `CC1(C)OC2CC3C4CC(F)C5=CC(=O)C=CC5(C)C4C(O)CC3(C)[C@]2(C(=O)CO)O1` (some centres not stated) was tested, and the Potency was “inactive”. With `O=C(CSc1nnc(-c2cccs2)o1)N1CCCc2ccccc21` the Potency was inconclusive [inhibitor, single point]. `Cc1nn(-c2ccccc2)c2c1C1(C(=O)Nc3ccccc31)N1C(=N2)Sc2ccccc21` (configuration not stated) was tested, and the Potency was “inactive”.
